# Hit rate of the full screen: of about 310,000 compounds, about 2,200 (0.71%) showed an effect of 50% or more. Effects have a minus sign here. The list shows a part of the results.
# Target: human ether-à-go-go-related gene (hERG) potassium channel (human, UniProt Q12809)
# Assay: primary screen, population patch clamp on CHO cells stably expressing hERG
# human ether-à-go-go-related gene (hERG) potassium channel, sequence (Q12809 whole entry, looked up): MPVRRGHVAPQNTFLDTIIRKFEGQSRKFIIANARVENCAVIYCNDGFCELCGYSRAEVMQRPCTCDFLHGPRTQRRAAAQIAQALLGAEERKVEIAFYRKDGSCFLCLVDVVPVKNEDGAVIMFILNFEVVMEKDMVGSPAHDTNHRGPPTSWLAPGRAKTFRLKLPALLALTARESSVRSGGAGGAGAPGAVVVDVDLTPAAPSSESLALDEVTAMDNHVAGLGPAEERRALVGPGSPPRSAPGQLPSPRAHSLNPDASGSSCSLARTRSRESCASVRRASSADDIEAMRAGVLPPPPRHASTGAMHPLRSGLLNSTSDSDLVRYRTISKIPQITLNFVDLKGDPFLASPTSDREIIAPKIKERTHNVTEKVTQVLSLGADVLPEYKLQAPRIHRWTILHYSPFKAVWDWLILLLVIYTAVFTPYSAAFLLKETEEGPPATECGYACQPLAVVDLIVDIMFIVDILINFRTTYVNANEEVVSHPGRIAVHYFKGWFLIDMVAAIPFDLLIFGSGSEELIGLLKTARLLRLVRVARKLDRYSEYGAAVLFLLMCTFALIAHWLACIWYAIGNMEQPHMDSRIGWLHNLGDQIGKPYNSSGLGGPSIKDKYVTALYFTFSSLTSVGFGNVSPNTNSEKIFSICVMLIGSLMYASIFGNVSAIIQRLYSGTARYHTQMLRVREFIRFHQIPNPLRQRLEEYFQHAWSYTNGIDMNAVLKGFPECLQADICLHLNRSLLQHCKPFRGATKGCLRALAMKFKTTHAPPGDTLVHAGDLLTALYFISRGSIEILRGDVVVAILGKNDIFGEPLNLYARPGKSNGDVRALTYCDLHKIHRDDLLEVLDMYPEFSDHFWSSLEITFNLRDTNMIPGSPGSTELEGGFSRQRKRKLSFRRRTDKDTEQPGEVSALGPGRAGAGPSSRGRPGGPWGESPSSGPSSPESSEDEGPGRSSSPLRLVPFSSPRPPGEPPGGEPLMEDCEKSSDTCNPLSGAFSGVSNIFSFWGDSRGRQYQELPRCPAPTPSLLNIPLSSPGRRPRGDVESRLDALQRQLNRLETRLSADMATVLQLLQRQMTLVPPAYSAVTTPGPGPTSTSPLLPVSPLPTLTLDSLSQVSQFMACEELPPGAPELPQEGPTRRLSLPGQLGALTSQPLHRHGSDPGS
row,SMILES,"hERG current change (%, negative = inhibition) at 1uM"
1,C=CCN1C(=O)C(CC(=O)O)S/C1=N/N=C/c1ccc(N(CC)CC)cc1 (stereo not shown),0.67%
2,CCOP(=O)(OCC)C(NC(=O)Nc1cccc(Cl)c1)c1ccccc1 (stereo not shown),1.07%
3,NNC(=O)c1cccc(S(=O)(=O)Nc2cccc(C(F)(F)F)c2)c1,11.7%
4,Cc1cc(C)nc(SCC(=O)N(C)CC(=O)Nc2ccccc2Br)n1,-5.76%
5,CC1(C)CC(=O)C=C(c2ccc3[nH]ccc3c2)C1,8.85%
6,Cc1ccccc1Nc1nnc(SCC(=O)N(C)C2CCS(=O)(=O)C2)s1 (stereo not shown),3.52%
7,CN(C)CCCNC(=O)c1ccc(-c2ccccc2)cc1,-11.5%
8,O=C(c1cc2nc(-c3ccccc3)cc(-c3ccccc3)n2n1)N1CCCC1,10.2%
9,O=C(Cn1c2[n+](c3ccc(C(F)(F)F)cc31)CCCCC2)Nc1c(F)cccc1F.[Cl-],9.69%
10,CN(C)c1ccc(C(C(=O)NC2CCCC2)N(C(=O)c2ccco2)C2CC2)cc1 (stereo not shown),12.3%
11,O=C(c1ccccc1)N1CCN(c2nc3ccc([N+](=O)[O-])cc3s2)CC1,-14%
12,CCc1ccc2ncc(S(=O)(=O)c3ccc(C)c(C)c3)c(N3CCCC3)c2c1,11.9%
13,O=C(O)c1cc(O)c2c(c1)[C@H]([C@H]1c3cc(C(=O)O)cc(O)c3C(=O)c3c(O[C@@H]4O[C@H](CO)[C@@H](O)[C@H](O)[C@H]4O)cccc31)c1cccc(OC3O[C@H](CO)[C@@H](O)[C@H](O)[C@H]3O)c1C2=O (stereo partly shown),7.86%
14,O=C(Nc1cc([N+](=O)[O-])ccc1Cl)C1CC1,8.39%
15,COc1cccc(CNC(=O)C2CCN(S(=O)(=O)c3ccccc3)CC2)c1,-8.89%
16,Cc1c(NC(=O)N(C)C)c(=O)n(-c2ccccc2)n1C,11.1%
17,Cc1cc(C=C2C(=O)NC(=O)NC2=O)c(C)n1-c1cccnc1,7.58%
18,CCOC(=O)N1CCN(S(=O)(=O)c2ccc(OC)c(Cl)c2Cl)CC1,3.18%
19,Cc1ccc(S(=O)(=O)Nc2nc(C)c(NC(=O)Nc3ccc(Cl)cc3Cl)s2)cc1,8.41%
20,CCOC(=O)CSc1nccc(N(C)C)c1C#N,13.7%
21,CCOC(=O)c1ccc(NC(=O)c2ccccc2)cc1,12.4%
22,Cc1nn(Cc2ccccc2)c(Cl)c1/C=N/NC(=O)c1cccnc1,5.03%

row,SMILES,"hERG current change (%, negative = inhibition) at 1uM"
1,CN(Cc1c(C(=O)N/N=C/c2cc(F)ccc2F)nnn1-c1nonc1N)C1CCCCC1,7.43%
2,CC(C)c1ccc(S(=O)(=O)Nc2ccc(O)c(Sc3ncn[nH]3)c2)cc1,1.49%
3,COc1cc(C(=O)NNC(=O)C2CC2)cc(OC)c1OC,15.5%
4,COc1cc(/C=C/C(=O)N2CCc3ccccc3C2)cc(OC)c1OC,12.2%
5,Cc1nc(CNS(=O)(=O)c2ccc(Br)cc2)cs1,19.7%
6,Cc1ccc(OCc2ccc(C(=O)Nc3c(C)nn(Cc4c(F)c(F)c(F)c(F)c4F)c3C)o2)c([N+](=O)[O-])c1,-20.1%
7,Cc1ccc(CNC(=O)CCNC(=O)Cn2ccc3ccccc3c2=O)o1,10.7%
8,COc1ccc(N2CCN(C3CCCN(C(=O)c4cccc(C)n4)C3)CC2)cc1 (stereo not shown),7.63%
9,CCn1c(NC2CCCCC2)nc2ccccc21,0.512%
10,CC1(C)C(=O)N(CCN2CCC(C(=O)c3ccc(F)cc3)CC2)c2ccccc21.Cl,-60.8%
11,COc1ccc(S(=O)(=O)NC2CC3CCC2C3)cc1 (stereo not shown),15%
12,O=S(=O)(NCc1ccccc1)c1ccc2ccccc2c1,7.75%
13,CCOc1ccccc1CN1CCC(N2CCOCC2)CC1.O=C(O)C(=O)O,18.2%
14,C1CNCCOCCNCCN1,1.84%
15,O=C(Cc1ccccc1)N1CCNCC1.O=C(O)C(=O)O,6.55%
16,COc1ccc(C(=O)OCCN2CCCCC2)cc1.Cl,9.16%
17,Cc1cccc(C)c1NC(=O)CNC(=O)Cn1nc(C)c(C)c(C#N)c1=O,19.1%
18,O=C(NCCCn1ccnc1)c1cc([N+](=O)[O-])cc([N+](=O)[O-])c1,-0.91%
19,COCCN(C(=O)COC(=O)c1cccs1)c1c(N)n(Cc2ccccc2)c(=O)[nH]c1=O,16.2%
20,O=C(Nc1ncn[nH]1)c1c(Cl)ccc(Cl)c1Cl,10.3%
21,COc1ccc(-c2cc(C(=O)NN)[nH]n2)cc1,10.4%
22,COc1ccc(C2=NN(C(=O)c3ccco3)C(c3ccco3)C2)cc1OC (stereo not shown),9.78%

row,SMILES,"hERG current change (%, negative = inhibition) at 1uM"
1,Cc1onc(-c2ccccc2)c1C(=O)NCc1cccc(Cl)c1,14%
2,O=C(NCc1ccccc1)C1=C[C@@H](C2CC2)C[C@@H](OCc2ccc(CO)cc2)O1,-1.59%
3,CCOc1ccc(-n2cc(C(=O)Nc3cccc(C)n3)c3cc(OC)c(OC)cc3c2=O)cc1,9.29%
4,N#C/C(=C(/O)CN1CCOCC1)c1nc(-c2ccccc2)cs1,14.7%
5,O=C(O)CSc1nc2ccccc2o1,8.6%
6,Cc1cc(NC(=O)CSc2cn(CC(=O)N(C(C)C)C(C)C)c3ccccc23)no1,12.1%
7,Cc1cc(C)c(OCC(=O)OCC(=O)NCc2cccs2)c(C)c1,-0.511%
8,O=C(NC(NNc1ccc([N+](=O)[O-])cc1)(C(F)(F)F)C(F)(F)F)c1ccccc1Cl,1.97%
9,CCCCCCOC1(c2ccccc2)OC(=O)c2ccccc21 (stereo not shown),17.9%
10,CSc1ccc(C(=O)C2CCCN(S(=O)(=O)N(C)C)C2)cc1 (stereo not shown),18.2%
11,CC(C)CC(=O)N=Nc1c(O)[nH]c2ccccc12,12.2%
12,Cc1cc(C)nc(-n2nc(C)cc2NC(=O)CN2CCCC2)n1,0.706%
13,Cc1cccc(Oc2nc(-c3ccccn3)nc3ccccc23)c1,7.6%
14,COc1ccc(NC(=S)Nc2ccccc2F)c(OC)c1,20.5%
15,CN1C(=O)CSC1=NC12CC3CC(CC(C3)C1)C2,5.29%
16,COc1ccc(S(=O)(=O)N2CCOC2CNC(=O)C(=O)NCCc2ccc(S(N)(=O)=O)cc2)cc1 (stereo not shown),19.5%
17,CCS(=O)(=O)N1Cc2ccccc2CC1C(=O)Nc1ccc(C)cc1 (stereo not shown),-2.13%
18,CCCCCCCCN1[C@@H](CC(C)=O)c2cc(C(F)(F)F)ccc2S1(=O)=O,11.8%
19,O=[N+]([O-])c1ccc(CSc2ccc(-c3ccccn3)nn2)cc1,-1.44%
20,COc1ccc(NC(=O)Cc2ccc(Cl)cc2Cl)cn1,10.5%
21,Cc1nc(C(=O)N2CCOCC2)sc1C1(C)CC(c2ccccc2)=NO1 (stereo not shown),5.57%
22,COc1ccc(-n2c(C)cc(/C=C3\C(=N)N4N=C(CC(=O)N5CCOCC5)SC4=NC3=O)c2C)cc1,11.8%

row,SMILES,"hERG current change (%, negative = inhibition) at 1uM"
1,COC(=O)/C=C1/S/C(=N/NC(=O)c2ccccc2OC)NC1=O,24.1%
2,CSc1nc(N(C)CCO)c2sc3nc(-c4ccco4)c4c(c3c2n1)CCC4,1.97%
3,COc1ccccc1CN(C)CC(=O)Nc1cccc2ccccc12,17.4%
4,O=C(O)CSc1nc2ccccc2n1Cc1ccccc1,7.23%
5,CCn1c(SCc2nc3sc(C(=O)O)c(C)c3c(=O)[nH]2)nc2ccccc21,5.98%
6,CC(=O)c1ccc(OC(=O)CN2C(=O)c3ccccc3C2=O)cc1,14.6%
7,O=C(N/N=C/c1cc(Br)cc(Cl)c1O)c1ccc2c(c1)OCO2,15.2%
8,Cc1ccc([C@@H]2CC=C(C(=O)O)[C@H](c3ccc(Cl)cc3)N2S(=O)(=O)c2ccc(C)cc2)cc1,8.09%
9,O=C(O)c1c(C(=O)O)c(-c2ccc(Cl)c(Cl)c2)n2c1CSC2,17%
10,Cc1ccc(C(=O)Cn2cccn2)cc1,18.4%
11,Cc1cccc(NC(=O)CC2S/C(=N/c3nccs3)N(C)C2=O)c1 (stereo not shown),7.91%
12,CCc1cccc2c(C(=O)CCl)c[nH]c12,13.8%
13,CCOc1ccc(C2=CSC3=NCCN23)cc1Cl,10.2%
14,CC(C)(C)C(=O)NCCCc1ccccc1,-16.5%
15,N=C1N(/N=C/c2ccccc2)C(=Nc2ccccc2)C(=S)N1c1ccccc1,-9.57%
16,COc1cnc(-c2ccccn2)nc1N(C)C,3.6%
17,CC(C)Oc1ccc(CCc2nnc(SC(C)C(=O)O)n2-c2ccccc2)cc1 (stereo not shown),4.63%
18,CCN(CC(=O)NCc1ccc(F)cc1)C(=O)COc1ccc(C)c(C)c1,-38.1%
19,CN(Cc1ccccc1)C(=O)c1ncn(C)c1C(=O)N(C)Cc1ccccc1,9.6%
20,COC(=O)C1=C(C)Nc2c(c(=O)n(C)c(=O)n2C)C1c1cccnc1 (stereo not shown),3%
21,CCCNC(=O)c1ccccc1NC(=O)c1ccccc1N(C)S(=O)(=O)c1ccccc1,9.2%
22,CCOCC(=O)Nc1ccc(C)c(Cl)c1,7.48%

# Reference: paper PMC4336329 (PLoS ONE, 2015)
